# This is one part of the list.
# Key:
# Experiment in all cases: glycan array binding signal (z-score within array); higher = stronger binding
# Settings in all cases: glycan notation: IUPAC condensed, linker removed
# [1] = target: Gal(b1-4)GlcNAc(b1-3)Gal(b1-4)GlcNAc(b1-3)Gal(b1-4)GlcNAc(b1-3)Gal(b1-4)GlcNAc(b1-2)Man(a1-3)[Gal(b1-4)GlcNAc(b1-3)Gal(b1-4)GlcNAc(b1-3)Gal(b1-4)GlcNAc(b1-3)Gal(b1-4)GlcNAc(b1-2)Man(a1-6)]Man(b1-4)GlcNAc(b1-4)GlcNAc
# Outline: (§1)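 The binding signal is a Z-score computed within each array. Data were drawn from 3228 arrays in the Consortium for Functional Glycomics database, restricted to those with a known protein sequence. Scores were averaged over arrays of the same protein sequence at different concentrations or buffers, and over linkers, and negative values can be taken as non-binding.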
# [2] = target: Gal(b1-4)GlcNAc(b1-3)Gal(b1-4)GlcNAc(b1-3)Gal(b1-4)GlcNAc(b1-3)Gal(b1-4)GlcNAc(b1-2)Man(a1-3)[Gal(b1-4)GlcNAc(b1-3)Gal(b1-4)GlcNAc(b1-3)Gal(b1-4)GlcNAc(b1-3)Gal(b1-4)GlcNAc(b1-2)Man(a1-6)]Man(b1-4)GlcNAc(b1-4)[Fuc(a1-6)]GlcNAc
# Outline: as §1
# [3] = target: Gal(b1-4)GlcNAc(b1-3)Gal(b1-4)GlcNAc(b1-3)Gal(b1-4)GlcNAc(b1-3)Gal(b1-4)GlcNAc(b1-2)[Gal(b1-4)GlcNAc(b1-3)Gal(b1-4)GlcNAc(b1-3)Gal(b1-4)GlcNAc(b1-3)Gal(b1-4)GlcNAc(b1-6)]Man(a1-6)[Gal(b1-4)GlcNAc(b1-3)Gal(b1-4)GlcNAc(b1-3)Gal(b1-4)GlcNAc(b1-3)Gal(b1-4)GlcNAc(b1-2)Man(a1-3)]Man(b1-4)GlcNAc(b1-4)[Fuc(a1-6)]GlcNAc
# Outline: as §1
# [4] = target: Gal(b1-4)GlcNAc(b1-3)Gal(b1-4)GlcNAc(b1-3)Gal(b1-4)GlcNAc(b1-3)Gal(b1-4)GlcNAc(b1-3)Gal(b1-4)GlcNAc(b1-2)Man(a1-3)[Gal(b1-4)GlcNAc(b1-3)Gal(b1-4)GlcNAc(b1-3)Gal(b1-4)GlcNAc(b1-3)Gal(b1-4)GlcNAc(b1-3)Gal(b1-4)GlcNAc(b1-2)Man(a1-6)]Man(b1-4)GlcNAc(b1-4)GlcNAc
# Outline: as §1
# [5] = target: Gal(b1-4)GlcNAc(b1-3)Gal(b1-4)GlcNAc(b1-3)Gal(b1-4)GlcNAc(b1-3)Gal(b1-4)GlcNAc(b1-3)Gal(b1-4)GlcNAc(b1-2)Man(a1-3)[Gal(b1-4)GlcNAc(b1-3)Gal(b1-4)GlcNAc(b1-3)Gal(b1-4)GlcNAc(b1-3)Gal(b1-4)GlcNAc(b1-3)Gal(b1-4)GlcNAc(b1-2)Man(a1-6)]Man(b1-4)GlcNAc(b1-4)[Fuc(a1-6)]GlcNAc
# Outline: as §1
# [6] = target: Gal(b1-4)GlcNAc(b1-3)Gal(b1-4)GlcNAc(b1-3)Gal(b1-4)GlcNAc(b1-3)Gal(b1-4)GlcNAc(b1-3)Gal(b1-4)GlcNAc(b1-2)[Gal(b1-4)GlcNAc(b1-3)Gal(b1-4)GlcNAc(b1-3)Gal(b1-4)GlcNAc(b1-3)Gal(b1-4)GlcNAc(b1-3)Gal(b1-4)GlcNAc(b1-6)]Man(a1-6)[Gal(b1-4)GlcNAc(b1-3)Gal(b1-4)GlcNAc(b1-3)Gal(b1-4)GlcNAc(b1-3)Gal(b1-4)GlcNAc(b1-3)Gal(b1-4)GlcNAc(b1-2)Man(a1-3)]Man(b1-4)GlcNAc(b1-4)[Fuc(a1-6)]GlcNAc
# Outline: as §1
# [7] = target: Gal(b1-4)GlcNAc(b1-3)Gal(b1-4)GlcNAc(b1-3)Gal(b1-4)GlcNAc(b1-3)Gal(b1-4)GlcNAc(b1-3)Gal(b1-4)GlcNAc(b1-3)Gal(b1-4)GlcNAc(b1-2)Man(a1-3)[Gal(b1-4)GlcNAc(b1-3)Gal(b1-4)GlcNAc(b1-3)Gal(b1-4)GlcNAc(b1-3)Gal(b1-4)GlcNAc(b1-3)Gal(b1-4)GlcNAc(b1-3)Gal(b1-4)GlcNAc(b1-2)Man(a1-6)]Man(b1-4)GlcNAc(b1-4)GlcNAc
# Outline: as §1
# [8] = target: Gal(b1-4)GlcNAc(b1-3)Gal(b1-4)GlcNAc(b1-3)GalNAc
# Outline: as §1
# [9] = target: Gal(b1-4)GlcNAc(b1-3)Gal(b1-4)GlcNAc(b1-3)[Gal(b1-4)GlcNAc(b1-3)Gal(b1-4)GlcNAc(b1-6)]GalNAc
# Outline: as §1
# [10] = target: Gal(b1-4)GlcNAc(b1-3)Gal(b1-4)GlcNAc(b1-6)[Gal(b1-3)]GalNAc
# Outline: as §1
# [11] = target: Gal(b1-4)GlcNAc(b1-3)Gal(b1-4)[Fuc(a1-3)]GlcNAc(b1-3)Gal(b1-4)[Fuc(a1-3)]GlcNAc
# Outline: as §1
# [12] = target: Gal(b1-4)GlcNAc(b1-3)GalNAc
# Outline: as §1
# [13] = target: Gal(b1-4)GlcNAc(b1-3)[Fuc(a1-3)GlcNAc(b1-6)]Gal(b1-4)Glc
# Outline: as §1
# [14] = target: Gal(b1-4)GlcNAc(b1-3)[Gal(b1-4)GlcNAc(b1-6)]Gal(b1-4)GlcNAc
# Outline: as §1
# [15] = target: Gal(b1-4)GlcNAc(b1-3)[GlcNAc(b1-6)]Gal(b1-4)GlcNAc
# Outline: as §1
# [16] = target: Gal(b1-4)GlcNAc(b1-6)Gal(b1-4)GlcNAc
# Outline: as §1
# [17] = target: Gal(b1-4)GlcNAc(b1-6)GalNAc
# Outline: as §1
# [18] = target: Gal(b1-4)GlcNAc(b1-6)[Gal(b1-3)]GalNAc
# Outline: as §1
# [19] = target: Gal(b1-4)GlcNAc(b1-6)[Gal(b1-4)GlcNAc(b1-3)]GalNAc
# Outline: as §1
# Gal(b1-4)GlcNAc6P = target: Gal(b1-4)GlcNAc6P
# Outline: as §1
# Gal(b1-6)Gal = target: Gal(b1-6)Gal
# Outline: as §1
# Gal3S(b1-3)GalNAc = target: Gal3S(b1-3)GalNAc
# Outline: as §1
# Gal3S(b1-3)GlcNAc = target: Gal3S(b1-3)GlcNAc
# Outline: as §1
binder,measurement,setting,value
LFA (Limax flavus) (protein) MSVLFLAASFLLLASFELVAAQGCPRQDPGDWIVIQRRLNADVNFYRGWADYKHGFGDLRCNFWLGNEKIHQLTSHGRYKLRVEFTFNNKSYFAEYSTFKILGEADKYKLQVGGYSGNAGDALTFHNGMAFSTNDRDNDADSIDCAKVYHGAWWYKTCHESNLNGKWGSKKYGEGLNWKAKTTFTATATSSLLKIKALK,glycan array binding signal (z-score),[1],0.243
same,glycan array binding signal (z-score),[2],0.267
same,glycan array binding signal (z-score),[3],0.856
same,glycan array binding signal (z-score),[4],-0.006
same,glycan array binding signal (z-score),[5],0.368
same,glycan array binding signal (z-score),[6],0.879
same,glycan array binding signal (z-score),[7],0.71
same,glycan array binding signal (z-score),[8],2.68
same,glycan array binding signal (z-score),[9],2.39
same,glycan array binding signal (z-score),[10],2.21
same,glycan array binding signal (z-score),[11],-0.223
same,glycan array binding signal (z-score),[12],1.17
same,glycan array binding signal (z-score),[13],0.216
same,glycan array binding signal (z-score),[14],-0.331
same,glycan array binding signal (z-score),[15],-0.373
same,glycan array binding signal (z-score),[16],-0.291
same,glycan array binding signal (z-score),[17],-0.258
same,glycan array binding signal (z-score),[18],-0.264
same,glycan array binding signal (z-score),[19],-0.145
same,glycan array binding signal (z-score),Gal(b1-4)GlcNAc6P,-0.307
same,glycan array binding signal (z-score),Gal(b1-6)Gal,-0.257
same,glycan array binding signal (z-score),Gal3S(b1-3)GalNAc,0.487
same,glycan array binding signal (z-score),Gal3S(b1-3)GlcNAc,-0.238
